Measurements from article PMC4336329 (PLoS ONE, 2015).
About 2,200 (0.71%) of roughly 310,000 compounds showed an effect of 50% or more. Effects have a minus sign here. This is one part of the list.

Target: human ether-à-go-go-related gene (hERG) potassium channel (human, UniProt Q12809)
Assay: primary screen, population patch clamp on CHO cells stably expressing hERG

Sequence of human ether-à-go-go-related gene (hERG) potassium channel (Q12809 whole entry, looked up): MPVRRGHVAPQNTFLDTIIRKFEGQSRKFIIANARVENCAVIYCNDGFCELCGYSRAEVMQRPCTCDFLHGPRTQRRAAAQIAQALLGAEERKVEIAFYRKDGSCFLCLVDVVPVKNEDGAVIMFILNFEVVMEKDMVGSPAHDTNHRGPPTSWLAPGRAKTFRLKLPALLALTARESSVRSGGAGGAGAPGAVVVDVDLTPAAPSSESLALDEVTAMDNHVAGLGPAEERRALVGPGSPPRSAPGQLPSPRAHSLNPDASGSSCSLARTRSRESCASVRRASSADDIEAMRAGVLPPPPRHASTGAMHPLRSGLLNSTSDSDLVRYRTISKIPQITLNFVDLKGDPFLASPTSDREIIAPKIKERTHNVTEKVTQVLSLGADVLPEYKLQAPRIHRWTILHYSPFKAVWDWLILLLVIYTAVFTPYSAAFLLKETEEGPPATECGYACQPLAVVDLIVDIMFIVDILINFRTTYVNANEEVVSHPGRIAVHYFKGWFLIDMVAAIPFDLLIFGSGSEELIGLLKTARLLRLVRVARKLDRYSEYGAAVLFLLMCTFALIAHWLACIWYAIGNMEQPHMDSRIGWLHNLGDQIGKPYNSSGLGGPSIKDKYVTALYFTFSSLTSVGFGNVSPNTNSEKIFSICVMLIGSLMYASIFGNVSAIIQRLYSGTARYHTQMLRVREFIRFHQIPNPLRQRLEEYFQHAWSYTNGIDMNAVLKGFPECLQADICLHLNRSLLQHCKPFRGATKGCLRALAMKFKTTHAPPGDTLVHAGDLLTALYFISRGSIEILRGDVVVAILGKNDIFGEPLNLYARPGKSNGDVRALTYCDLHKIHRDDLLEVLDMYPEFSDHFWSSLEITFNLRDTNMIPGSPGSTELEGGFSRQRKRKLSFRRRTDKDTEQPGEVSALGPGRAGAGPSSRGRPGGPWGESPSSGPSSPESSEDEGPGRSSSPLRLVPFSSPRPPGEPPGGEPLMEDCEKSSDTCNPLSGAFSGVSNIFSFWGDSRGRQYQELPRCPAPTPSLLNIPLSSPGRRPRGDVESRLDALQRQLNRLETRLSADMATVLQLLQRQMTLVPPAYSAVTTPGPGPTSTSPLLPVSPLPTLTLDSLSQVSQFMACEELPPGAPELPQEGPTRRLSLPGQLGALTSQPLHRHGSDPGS

| SMILES | hERG current change (%, negative = inhibition) at 1uM [%] |
| --- | --- |
| CCC(C)[C@H](NC(=O)C1CCN(C(=O)[C@H](Cc2ccccc2)NC(=O)OC(C)(C)C)CC1)C(=O)O (stereo partly shown) | 5.8 |
| Clc1ccc(-c2ccnc(Oc3cc(Cl)ccc3Cl)n2)cc1 | 14.7 |
| COc1ccc(NC(=O)CN2C(=O)C(C)Oc3ccccc32)cc1 (stereo not shown) | 4.53 |
| NC(=O)CCS(=O)(=O)CCN1CCCCC1 | 15.9 |
| Cc1ccc(S(=O)(=O)/N=C2/C=C(C3C(=O)CC(C)(C)CC3=O)C(=O)c3ccccc32)cc1 | 3.31 |
| O=c1c2ccccc2cnn1-c1ccc(Cl)cc1 | 7.98 |
| CC(C)(C)c1ccc2c(c1)OC(C(=O)N/N=C/c1ccc([N+](=O)[O-])o1)CO2 (stereo not shown) | 2.74 |
| CC(=O)O[C@H]1CC(C)(C)C(=C=C/C(C)=C/C=C/C(C)=C/C=C/C=C(C)/C=C/C=C(\C)C(=O)C[C@@]23O[C@]2(C)C[C@@H](O)CC3(C)C)[C@](C)(O)C1 | 14.8 |
| C=CCNC(=O)c1onc(CSc2cccc(OC)c2)c1C(=O)O | 18.7 |
| COc1ccc(NC(=O)CSc2nnc(NC(C)=O)s2)c([N+](=O)[O-])c1 | 12.9 |
| N#CC1=C(N)Oc2cc(N)ccc2C1c1cccc(F)c1 (stereo not shown) | 0.989 |
| O=C(CSc1nc2ccccc2o1)Nc1ccc(N2CCOCC2)c(Cl)c1 | 4.7 |
| CC1CN(C(=O)c2ccccc2)OC(c2ccc3c(c2)OCO3)O1 (stereo not shown) | 7.74 |
| O=C(CN1C(=O)c2ccccc2C1=O)Nc1cc([N+](=O)[O-])ccc1O | 13.9 |
| O=C1C=C(c2cccc(CO)c2)C[C@@H](c2ccc3c(c2)OCO3)C1 | 5.51 |
| COc1cc(-c2nnc(COC(=O)CSc3cc(C)c4ccccc4n3)o2)cc(OC)c1OC | 14.9 |
| Cl.Cn1nnnc1SCCNCc1ccccc1OCc1ccccc1Cl | 5.48 |
| Cc1ccccc1N/N=C1\CCCNC1=O | 6.51 |
| COc1ccccc1OCCn1c(C(C)O)nc2ccccc21 (stereo not shown) | 11.3 |
| CCOc1ccc2[nH]c(=O)c(C(c3nnnn3C3CCCCC3)N3CCN(C)CC3)cc2c1 (stereo not shown) | -14.4 |
| CCOc1ccc2[nH]c(S(=O)(=O)CC)nc2c1Cl | 15.9 |
| CCOc1ccc(N(C(C)C(=O)NC2CCCCCC2)S(C)(=O)=O)cc1 (stereo not shown) | -2.91 |

| SMILES | hERG current change (%, negative = inhibition) at 1uM [%] |
| --- | --- |
| C=C(C)Cn1c(SCC(=O)N/N=C/c2ccccc2)nc2ccccc2c1=O | 11 |
| CC(=O)c1ccc(N(C(=O)c2ccco2)C(C(=O)NC2CCCC2)c2ccc(N3CCOCC3)cc2)cc1 (stereo not shown) | 13.1 |
| Cc1c(CCC(=O)N[C@@H](C)C(=O)O)c(=O)oc2cc3occ(-c4ccccc4)c3cc12 | -0.947 |
| Cc1ccc2[nH]c(=O)c(CN(CCCN3CCOCC3)C(=O)NC3CCCCC3)cc2c1 | -4.37 |
| Cc1cc([N+](=O)[O-])ccc1NC(=O)c1cncc(Br)c1 | 4 |
| COc1ccc(/C=C(/C#N)C(=O)Nc2cc(C)ccc2C)cc1C(=O)O | 3.45 |
| Cc1cc(NC(=O)c2ccc(C)o2)no1 | 14.8 |
| O=C(COC(=O)c1cccc([N+](=O)[O-])c1)Nc1ccc(Cl)cn1 | 9.13 |
| CC(C)(C)OC(=O)N1CCC(CNC(=O)c2ccc(F)cc2F)CC1 | 1.01 |
| Cc1nc2ccc(NC(=O)CSc3nnc(C)s3)cc2[nH]1 | 9.89 |
| O=C(CN1CCCC1)Nc1ccc(OCc2ccccc2)cc1 | 8 |
| CCOC(=O)c1cc(Br)c(=O)n2ccccc12 | 6.25 |
| CC(C)C[C@@H](C(=O)NCc1ccco1)N1C(=O)N2CCc3c([nH]c4ccccc34)[C@@]2(C)C1=O | 12.5 |
| COc1cc(OC)cc(C(=O)N[C@H](C(=O)Nc2nc(-c3ccc(OC)c(OC)c3)cs2)C(C)C)c1 | 8.11 |
| CCO[C@@H]1OC(C(N)=O)=C[C@H](C2CCCCC2)[C@H]1CCCO | 6.3 |
| Clc1ccc2c(N/N=C/c3cccc(Br)c3)ccnc2c1 | -4.87 |
| O=C(c1cc(COc2ccc(F)cc2Cl)on1)N1CCN(c2cnccn2)CC1 | -6.87 |
| O=C(COC(=O)c1cc([N+](=O)[O-])ccc1N1CCOCC1)c1ccccc1Cl | 5.21 |
| O=C(COc1ccccc1)Nc1c2c(nn1-c1ccccc1)CS(=O)(=O)C2 | -5.47 |
| Cc1ccc(N2C(=O)CC(N(O)C3CC(=O)N(c4ccc(C)cc4)C3=O)C2=O)cc1 (stereo not shown) | 10.2 |
| CC1=[N+]([O-])C2(N)CCc3nonc3C2(O)C1 (stereo not shown) | 6.29 |
| CC1CC(C)CN(CCCNC(=O)c2ccc3c(c2)ncn3C2CCCC2)C1 (stereo not shown) | 2.15 |

| SMILES | hERG current change (%, negative = inhibition) at 1uM [%] |
| --- | --- |
| CCOC(=O)c1c(C)cc(C)n2c1nc1ccccc12 | -10.3 |
| O=C(CN(Cc1ccccc1)C(=O)CCC(=O)Nc1ccccn1)NCCc1ccccc1 | -25.5 |
| Cc1nnc(SCC(=O)N(C)CC(=O)Nc2ccccc2Cl)s1 | 12.8 |
| O=C(/C=C/c1cccc([N+](=O)[O-])c1)NCCSCc1ccc(Cl)cc1Cl | 13.1 |
| Nc1cccnc1Sc1cccc(Cl)c1 | 0.956 |
| CC(=O)Nc1ccc(S(=O)(=O)N2CCC3(CC2)OCCO3)cc1 | 9.75 |
| Clc1ccc2c(N/N=C/c3ccccc3Br)ccnc2c1 | 13.5 |
| Cc1nnsc1Sc1ccccn1 | 14.2 |
| COc1ccc(-n2c(SCC(=O)N3CCCCC3)nc(O)cc2=O)cc1 | 0.166 |
| O=C(c1cccc(NC2=NC3CS(=O)(=O)CC3S2)c1)N1CCN(c2ccc(F)cc2)CC1 (stereo not shown) | 13.1 |
| O.Oc1cc(O)c2c(c1)OC(c1ccc(O)c(O)c1)C(O)C2 (stereo not shown) | 0.188 |
| COC(=O)N1[C@H](C)C=C[C@]1(Cc1ccccc1)C(=O)OC | 8.56 |
| N#Cc1ccsc1NC(=O)C1CCN(C(=O)c2ccc(F)cc2)CC1 | -6.52 |
| COc1ccc(C2C(C(C)=O)=C(O)C(=O)N2CCO)c(OC)c1 (stereo not shown) | 11.3 |
| COc1ccccc1NC(=O)c1ccc(NS(=O)(=O)c2ccc(F)c(F)c2F)cc1 | -0.621 |
| O=C1NC(=O)/C(=C\c2ccc(Sc3ccc(Cl)cc3)o2)N1 | 10.8 |
| Cn1c(-c2ccccc2)cnc1NCc1cc(Cl)ccc1O | 16.9 |
| CCOC(=O)N1CCN(C(=O)c2ccccc2CCc2ccccc2)CC1 | -4.89 |
| Cc1cc(NS(=O)(=O)c2ccc(NC(=O)c3oc4ccccc4c3C)cc2)no1 | 0.431 |
| CC(C)CC(NC(=O)c1cccc(Cl)c1)C(=O)O (stereo not shown) | 17.8 |
| O=C(Oc1cccc2cccnc12)c1cccc(N2C(=O)C3C4CCC(C4)C3C2=O)c1 (stereo not shown) | 3.55 |
| Cc1occc1C(=O)NC1CCCCCCC1 | 11.2 |

| SMILES | hERG current change (%, negative = inhibition) at 1uM [%] |
| --- | --- |
| Cc1cc(OCC(=O)OC(C)C(=O)Nc2ccc(N3CCOCC3)cc2)ccc1Cl (stereo not shown) | 2.06 |
| CC1=NN(c2ccccc2)C(=O)C1C(=O)c1cc([N+](=O)[O-])cc([N+](=O)[O-])c1 (stereo not shown) | 7.38 |
| Cc1nn(-c2ccccc2)c(Cl)c1/C=N/NC(=O)c1ccncc1 | 11.9 |
| COc1ccc(CNC(=O)C(C)NCc2ccc(S(N)(=O)=O)cc2)cc1 (stereo not shown) | 0.614 |
| COc1cc(S(=O)(=O)N2CCOCC2)cc(C(=O)OCC(=O)NC2CCCCC2)c1OC | 13.4 |
| CCN(C(=O)CSc1ncnc2c1cnn2-c1ccccc1)C1CCS(=O)(=O)C1 (stereo not shown) | 9.57 |
| COc1ccc(NC(=O)NC(C)C2CC3CCC2C3)cc1 (stereo not shown) | 9.57 |
| CCOC(=O)c1sc(C)c2c1NC(c1ccc(N(C)C)cc1)NC2=O (stereo not shown) | 1.65 |
| O=C(c1cc2ccc([N+](=O)[O-])cc2oc1=O)N1CCOCC1 | 8.35 |
| COc1ccc(C2(NC(C)=O)CCN(C(=O)c3cccs3)CC2)cc1 | 3.22 |
| COc1ccc(C(=O)C2CCCN(C(=O)c3noc4c3CCCC4)C2)cc1F (stereo not shown) | 12.6 |
| CNC(=O)C1C2C=CC3(O2)C1C(=O)N(CCOC)C3C(=O)NCc1ccc(OC)cc1 (stereo not shown) | 18.3 |
| O=C(Oc1cccc2cccnc12)c1ccc(N2C(=O)C3C4CCC(C4)C3C2=O)cc1 (stereo not shown) | 6.86 |
| COc1ccc(S(=O)(=O)N(C)CC(=O)N2CCOCC2)cc1 | -2.22 |
| COc1cccc(CC2(CO)CCCN(Cc3ccc(-c4ccco4)cc3)C2)c1 (stereo not shown) | 9.67 |
| O=c1[nH]c2ccccc2nc1CCc1ccccc1 | 5.69 |
| CCCOc1cccc(-c2cc(C(=O)N/N=C/c3ccccn3)c3ccccc3n2)c1 | 5.05 |
| CCOc1ccc(CN2CCN(C(=O)c3cccc4ccccc34)CC2)cc1.O=C(O)C(=O)O | -3.13 |
| COC(=O)COc1ccc(S(=O)(=O)Nc2ccc(NC(C)=O)cc2)cc1C | 13.8 |
